# According to the supplement of paper PMC12217912:
# The other results are listed elsewhere or left out. Sequences were assembled here from the parent chain. Inactive controls read about 0.05.
# B1: TEV protease; numbered along this chain (parent)
# chain: MGESLFKGPRDYNPISSSICHLTNESDGHTTSLYGIGFGPFIITNKHLFRRNNGTLVVQSLHGVFKVKDTTTLQQHLVDGRDMIIIRMPKDFPPFPQKLKFREPQREERICLVTTNFQTKSMSSMVSDTSCTFPSGDGIFWKHWIQTKDGQCGSPLVSTRDGFIVGIHSASNFTNTNNYFTSVPKNFMELLTNQEAQQWVSGWRLNADSVLWGGHKVFMVKPEEPFQPVKEATQL
# Variants of: B1
# Assay: raw area under fraction-flipped curve 0-4 h after induction (AUC4h, not background-subtracted), DNA-recorder readout of cleavage of the substrate (dimensionless); higher = more cleavage of the substrate by the protease variant
# Details: temperature: 34 °C; time window: 0-4 h after rhamnose induction
# 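Also: Bxb1 expression induced with 0.2% (w/v) L-rhamnose at OD600 near 0.5, cultures sampled hourly, flipped fraction per protease–substrate barcode pair counted by paired-end Illumina sequencing.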
variant,measurement,value
MGESLFKGPRDYNPISSSICHLTNESDGHTTSLYGIGFGPFIITNKHLFRRNNGTLVVQSLHGVFMVKDTTTLQQHLVDGRDMIIIRMPKDFPPFPQKLKFREPQREERICLVTTNFQTKSMSSMVSDTSCTFPSGDGIFWKHWIQTKDGQCGSPLVSTRDGFIVGIHSASNFTNTNNYFTSVPKNFMELLTNQEAQQWVSGWRLNADSVLWGGHKVFMVKPEEPFQPVKEATQL [K66M],area with substrate ENLYEQS,0.0628
same,area with substrate ENLYGQS,0.0542
same,area with substrate ENLYHQS,0.0688
same,area with substrate ENLYIQS,0.125
same,area with substrate ENLYKQS,0.0692
same,area with substrate ENLYNQS,0.0572
same,area with substrate ENLYPQS,0.0774
same,area with substrate ENLYSQS,0.0795
same,area with substrate ENLYTQS,0.081
same,area with substrate ENLYWQS,0.114
same,area with substrate ENLYYQS,0.0558
MGESLFKGPRDYNPISSSICHLTNESGGHTTSLYGIGFGPFIITNKHLFRRNNGTLVVQSLHGVFKVKDTTTLQQHLVDGRDMIIIRMPKDFPPFPQKLKFREPQREERICLVTTNFQTKSMSSMVSDTSCTFPSGDGIFWKHWIQTKDGQCGSPLVSTRDGFIVGIHSASNFTNTNNYFTSVPKNFMELLTNQEAQQWVSGWRLNADSVLWGGHKVFMVKPEEPFQPVKEATQL [D27G],area with substrate ENLYEQS,0.0822
same,area with substrate ENLYHQS,0.0566
same,area with substrate ENLYIQS,0.111
same,area with substrate ENLYKQS,0.0558
same,area with substrate ENLYMQS,0.0026
same,area with substrate ENLYNQS,0.0675
same,area with substrate ENLYPQS,0.0279
same,area with substrate ENLYRQS,0.0666
same,area with substrate ENLYVQS,0.164
same,area with substrate ENLYWQS,0.065
same,area with substrate ENLYYQS,0.0541
MGESLFKGPRDYNPISSSICHLTNESDGHTTSLYGIGFYPFIITNKHLFRRNNGTLVVQSLHGVFKVKDTTTLQQHLVDGRDMIIIRMPKDFPPFPQKLKFREPQREERICLVTTNFQTKSMSSMVSDTSCTFPSGDGIFWKHWIQTKDGQCGSPLVSTRDGFIVGIHSASNFTNTNNYFTSVPKNFMELLTNQEAQQWVSGWRLNADSVLWGGHKVFMVKPEEPFQPVKEATQL [G39Y],area with substrate ENLYEQS,0.0466
same,area with substrate ENLYGQS,0.0419
same,area with substrate ENLYHQS,0.0369
same,area with substrate ENLYIQS,0.0462
same,area with substrate ENLYKQS,0.0402
same,area with substrate ENLYNQS,0.0394
same,area with substrate ENLYPQS,0.0378
same,area with substrate ENLYQQS,0.0403
same,area with substrate ENLYRQS,0.069
same,area with substrate ENLYSQS,0.0434
same,area with substrate ENLYVQS,0.0453
same,area with substrate ENLYWQS,0.0353
MGESLFKGPRDYNPISSSICHLTNESDGHTTSLYGIGFGPFIITNKHLFRRNNGTLVVQSLHGVFKVKDTTTLQQHLVDGRDMIIIRMPKDFPPFPQKLKFREPQREERICLVTTNFQTKSMSSMVSDTSCEFPSGDGIFWKHWIQTKDGQCGSPLVSTRDGFIVGIHSASNFTNTNNYFTSVPKNFMELLTNQEAQQWVSGWRLNADSVLWGGHKVFMVKPEEPFQPVKEATQL [T132E],area with substrate ENLYEQS,0.0494
same,area with substrate ENLYGQS,0.0559
same,area with substrate ENLYHQS,0.0563
same,area with substrate ENLYIQS,0.0625
same,area with substrate ENLYLQS,0.0531
same,area with substrate ENLYMQS,0.0536
same,area with substrate ENLYNQS,0.057
same,area with substrate ENLYPQS,0.0649
same,area with substrate ENLYQQS,0.0504
same,area with substrate ENLYRQS,0.0629
same,area with substrate ENLYSQS,0.0586
same,area with substrate ENLYTQS,0.0484
same,area with substrate ENLYYQS,0.0222
MGESLFKGPRDYNPISSSICHLTNESDGHTTSLYGIGFGPFIITNKHLFRRNNGTLVVQSLHGVFKVKDTTTLQQHLVDGRDMIIIRMPKDFPPFPQKLKFREPQREERICLVTTNFQTKSMSSMVSDTSCTFPSGDGIFWKHWIQTKDGQCGSPLVSTRDGFIVGIHSASNFTNTNNYFTSDPKNFMELLTNQEAQQWVSGWRLNADSVLWGGHKVFMVKPEEPFQPVKEATQL [V183D],area with substrate ENLYEQS,0.0578
same,area with substrate ENLYHQS,0.0419
same,area with substrate ENLYIQS,0.052
same,area with substrate ENLYKQS,0.0517
same,area with substrate ENLYMQS,0.0481
same,area with substrate ENLYNQS,0.0541
same,area with substrate ENLYPQS,0.0535
same,area with substrate ENLYRQS,0.0559
same,area with substrate ENLYTQS,0.0312
same,area with substrate ENLYYQS,0.0365
MGESLFKGPRDYNPISSSICHLTNESDGHTTSLYGIGFGPFIITNKHLFRRNNGTLVVQSLHGVFKVKDTTTLQQHLVDGRDMIIIRMPKDFPPFPQKLKFREPQRLERICLVTTNFQTKSMSSMVSDTSCTFPSGDGIFWKHWIQTKDGQCGSPLVSTRDGFIVGIHSASNFTNTNNYFTSVPKNFMELLTNQEAQQWVSGWRLNADSVLWGGHKVFMVKPEEPFQPVKEATQL [E107L],area with substrate ENLYEQS,0.11
same,area with substrate ENLYGQS,0.0586
same,area with substrate ENLYHQS,0.0774
same,area with substrate ENLYQQS,0.058
same,area with substrate ENLYRQS,0.0627
same,area with substrate ENLYSQS,0.0774
same,area with substrate ENLYWQS,0.0441
same,area with substrate ENLYYQS,0.0498
MGESLFKGPRDYNPISSSICHLTNESDGHTTSLYGIGFGPFIITNKHLFRRNNGTLVVQSLHGVFKVKDTTTLQQHLVDGRDMIIIRMPKDFPPFPQKLKFREPQREERIHLVTTNFQTKSMSSMVSDTSCTFPSGDGIFWKHWIQTKDGQCGSPLVSTRDGFIVGIHSASNFTNTNNYFTSVPKNFMELLTNQEAQQWVSGWRLNADSVLWGGHKVFMVKPEEPFQPVKEATQL [C111H],area with substrate ENLYEQS,0.0746
same,area with substrate ENLYHQS,0.083
same,area with substrate ENLYIQS,0.124
same,area with substrate ENLYKQS,0.056
same,area with substrate ENLYLQS,0.0904
same,area with substrate ENLYNQS,0.0661
same,area with substrate ENLYPQS,0.119
same,area with substrate ENLYRQS,0.0712
same,area with substrate ENLYSQS,0.0697
same,area with substrate ENLYVQS,0.0968
same,area with substrate ENLYWQS,0.0807
MGESLFKGPRDYNPISSSICHLTNESDGHTTSLYGIGFGPFIITNKHLFRRNNGTLVVQSLHGVFKVKDTTTLQQHLVDGRDMIIIRMPKDFPPFPQKLKFREPQREERICLVTTNFQTKSMSSMVSDTSCTFPSGDGIFWKHWIQTKDGQCGSPLVSTRDGFIVGIHSASNFTNTNNYFTSVPKNFMELLTNQEAQQWVSGWRLNADSVLWGGHKVFMVKPEEPQQPVKEATQL [F226Q],area with substrate ENLYEQS,0.0413
same,area with substrate ENLYKQS,0.0465
same,area with substrate ENLYPQS,0.0967
same,area with substrate ENLYQQS,0.0635
same,area with substrate ENLYRQS,0.0361
same,area with substrate ENLYSQS,0.0764
same,area with substrate ENLYTQS,0.075
same,area with substrate ENLYVQS,0.126
same,area with substrate ENLYWQS,0.0724
MGESLFKGPRDYNPISSSICHLTNESDGHTTSLYGIGFGPFIITNKHLFRRNNGTLVVQSLHGVFKVADTTTLQQHLVDGRDMIIIRMPKDFPPFPQKLKFREPQREERICLVTTNFQTKSMSSMVSDTSCTFPSGDGIFWKHWIQTKDGQCGSPLVSTRDGFIVGIHSASNFTNTNNYFTSVPKNFMELLTNQEAQQWVSGWRLNADSVLWGGHKVFMVKPEEPFQPVKEATQL [K68A],area with substrate ENLYEQS,0.0774
same,area with substrate ENLYGQS,0.0473
same,area with substrate ENLYHQS,0.062
same,area with substrate ENLYIQS,0.126
same,area with substrate ENLYKQS,0.0374
same,area with substrate ENLYMQS,0.0876
same,area with substrate ENLYNQS,0.0674
same,area with substrate ENLYPQS,0.0583
same,area with substrate ENLYQQS,0.0675
same,area with substrate ENLYRQS,0.062
same,area with substrate ENLYSQS,0.0829
same,area with substrate ENLYTQS,0.14
same,area with substrate ENLYWQS,0.0808
